Values joined by “and” are separate entries in the source; they are usually repeats but may differ in a detail not shown here. Identical values can stand only once. Out of some 420,000 compounds screened, about 64,000 (15%) were called active. This list was built around the results that the source calls inconclusive (neither active nor inactive); the mix of calls is not that of the screen. The call rests on the fitted dose curve; in most records, active means well fitted inhibition curve with a large enough effect; inconclusive means small, poorly fitted or top-dose-only effect; inactive means flat fitted curve, though single readings scatter. No potency is given beside an inconclusive call; the fits are too rough. More than one record can exist for a structure, and the calls need not agree.
Test: qHTS for Inhibitors of human tyrosyl-DNA phosphodiesterase 1 (TDP1): qHTS in cells in absence of CPT; further: nearly all actives have a fitted effect of over 55% in size
Conditions: DT40 Tdp1-/- hTDP1 cells, no CPT, ATP luminescence, 48 h; activity change, negative = growth inhibition: at 46.2 µM (top of the series) unless noted
How it was run: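 No-CPT arm: Tdp1-/-;hTDP1 DT40 cells (400/well) plus compounds, incubated ≥48 hr at 37 °C. Readout CellTiter-Glo luminescence.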
On the % scale 0 is the no-effect control and ±100 the full control effect; potency means the concentration at half of the fitted maximal effect; tags describe the fitted curve by direction and shape.

Row | SMILES | Potency | activity change, negative = growth inhibition
1 | CSc1ccc(/C=c2\s/c(=C\C(=O)C(C)(C)C)n(CC(=O)NCCC3=CCCCC3)c2=O)cc1 | inconclusive [inhibitor, single point] | 
2 | O=C(OCC(=O)N(CCc1ccccc1)Cc1ccccc1)c1ccccc1O | inconclusive [inhibitor, single point] | 
3 | C#C[C@]1(OC(C)=O)CC[C@H]2[C@@H]3CCC4=C[C@@H](OC(C)=O)CC[C@@H]4[C@H]3CC[C@@]21C | inactive and active: 15 µM | 
4 | CCN(CC)S(=O)(=O)c1ccc(C(=O)N2CC(=O)Nc3ccc(F)cc3C2c2ccccc2)cc1 (configuration not stated) | inconclusive [inhibitor, single point] | 
5 | Cc1c(C(=O)c2ccc(F)cc2F)c2ccccn2c1CCc1ccccn1 | inconclusive [inhibitor, single point] | 
6 | CSc1nnc(C)c(/C=C/NOCc2ccc(Cl)cc2)n1 |  | inactive: -24.2%
7 | O=C(N=C1SC2CS(=O)(=O)CC2N1Cc1ccc(Cl)cc1)C1CCCO1 (configuration not stated) |  | inactive: 13.3%
8 | Oc1ccc(N=Nc2cccc(C(F)(F)F)c2)cc1C=Nc1ccc(N2CCOCC2)cc1 | active: 18.4 µM | 
9 | COC(=O)c1cc(OC)c(OC)cc1NC(=S)N1CCN(c2ccccn2)CC1 | inconclusive [inhibitor, single point] | 
10 | Clc1ccc(-c2ccc(/C=N/Nc3nncc(-c4ccccc4)n3)o2)cc1 | inconclusive [inhibitor, partial curve] | 
11 | Cc1cc(NC(=O)c2ccc(C)c(C)c2)no1 |  | inactive: -17.7%
12 | CCCCCCCCCC[n+]1ccc(/C=C/c2c[nH]c3ccccc23)cc1 | active: 0.112 µM | 
13 | CCCCN(C(=O)Cc1ccc(S(=O)(=O)N2CCOCC2)s1)c1c(N)n(CCCC)c(=O)[nH]c1=O |  | inactive: -8.89%
14 | O=C(NNS(=O)(=O)c1ccc(Cl)cc1)c1cnn(-c2ccccc2)c1-n1cccc1 | active: 2.06 µM | 
15 | N#Cc1cccnc1N1CCN(C(C(=O)NC2CCCC2)c2ccc(F)cc2)CC1 (configuration not stated) | inconclusive [inhibitor, single point] | 
16 | CCOCCCn1c(SCC(=O)Nc2cc(OC)ccc2OC)nc2ccccc2c1=O | inconclusive [inhibitor, single point] | 
17 | O=[N+]([O-])c1ccc(N2CCN(Cc3ccccc3)CC2)c(S(=O)(=O)N2CCOCC2)c1 | inconclusive [inhibitor, partial curve, poor fit] | 
18 | CC(C)c1ccc(NC(=O)c2ccc(-c3ccnn3C)c3ccoc23)cc1 | active: 20.6 µM | 
19 | CSc1nnc(CNC(=O)c2c(-c3ccccc3)noc2C)n1-c1ccc(F)cc1 |  | inactive: -14.6%
20 | CC(=O)N1c2ccc(S(=O)(=O)NCC3CCC(C(=O)Nc4cc(C)ccc4C)CC3)cc2CC1C (configuration not stated) | active: 18.4 µM | 
21 | COc1cc(NC(=O)c2c(C)oc3c2C2=NCCN2C=N3)cc(OC)c1OC | inconclusive [inhibitor, full curve, poor fit] | 
22 | O=C(CCn1nnc2ccccc21)NNC(=O)C1CCCCC1 |  | inactive: 0.508%
23 | CCOC(=O)C1=C(COC(=O)CNS(=O)(=O)c2ccc(C)c(C)c2)NC(=O)NC1C (configuration not stated) |  | inactive: -1.93%
24 | COc1cc(OC)c(/C=C2\SC(=O)N(CC(=O)Nc3ccccc3F)C2=O)c(OC)c1 | active: 20.6 µM | 

Row | SMILES | Potency | activity change, negative = growth inhibition
25 | Cc1ccc(S(=O)(=O)N(C)CC(=O)NCC(c2ccco2)N(C)C)cc1 (configuration not stated) |  | inactive: -3.51%
26 | O=C(CN1CCN(c2ccccc2O)CC1)NC(c1ccccc1)c1ccccc1 | inconclusive [inhibitor, single point] | 
27 | COc1ccc(OCC(=O)NCc2ccc3c(c2)CCN3C(=O)c2ccc(F)cc2)cc1 | inconclusive [inhibitor, single point] | 
28 | COc1ccc(S(=O)(=O)N2CCC(C(=O)NC3CCCC3)CC2)cc1C |  | inactive: -14.5%
29 | CC(C)CCN(C(=O)CCSc1ccc(F)cc1)c1c(N)n(Cc2ccccc2)c(=O)[nH]c1=O | inconclusive [inhibitor, single point] | 
30 | CCC1CCCCN1CCCNC(=O)c1cc2c(=O)oc3ccc(C)cc3c2s1 (configuration not stated) | inconclusive [inhibitor, single point] | 
31 | CCOc1ccc(C(=O)Nc2nc3ccccc3[nH]2)cc1OCC | active: 8.2 µM | 
32 | COc1ccc(/C=C2\Oc3cc(OC(=O)N4CCOCC4)ccc3C2=O)cc1 | active: 13 µM | 
33 | CC(C)(C)NC(=O)C(c1cc2ccccc2o1)n1c(-c2ccc(-c3ccccc3)cc2)nc2ccccc21 (configuration not stated) | inconclusive [inhibitor, single point] | 
34 | CCS(=O)(=O)c1ccc2oc(Nc3ccc(C(C)(C)C)cc3)nc2c1 | active: 14.6 µM | 
35 | COC(=O)COc1ccc2c(c1C)O/C(=C\c1ccco1)C2=O |  | inactive: -27.7%
36 | CC1(C(=O)NS(=O)(=O)C2CC2)CCN(C(=O)c2c(F)cccc2F)C1 (configuration not stated) |  | inactive: -1.08%
37 | N#Cc1nc(-c2ccccc2F)oc1N1CCCCC1 |  | inactive: -7.69%
38 | O=C(Oc1ccc(C(=S)N2CCOCC2)cc1)c1ccccc1F |  | inactive: -13.9%
39 | OCCCc1cn(CC2CCCCC2)nn1 |  | inactive: -1.43%
40 | CN1CCN(c2ccc(S(=O)(=O)N3CCCCC3)cc2NC(=O)COc2cccc(Cl)c2)CC1 | inconclusive [inhibitor, single point] | 
41 | Cc1ccc(NC(=O)N2CCC(C(N)=O)CC2)cc1 |  | inactive: -5.09%
42 | CCOC(=O)c1nn(-c2ccc(C)c(C)c2)cc1O | inconclusive [inhibitor, single point] | 
43 | OCCC1CN(Cc2cnc(-c3ccccc3)s2)CCN1Cc1ccccc1 (configuration not stated) | inconclusive [inhibitor, partial curve] | 
44 | COc1cc(NC(=O)CSc2nnnn2-c2ccccc2)cc(OC)c1OC | inconclusive [inhibitor, partial curve] | 
45 | CN(C)Cc1cc(C(C)(C)C)c(O)c(C(C)(C)C)c1 | inconclusive [inhibitor, single point] | 
46 | COc1ccc(CNC(=O)CCN2C(=O)c3ccccc3C2=O)cc1 |  | inactive: 19.1%
47 | S=C(NNC(=S)NC1CC2CCC1C2)NC1CC2C=CC1C2 (configuration not stated) | inconclusive [inhibitor, single point] | 
